Assay results taken from article PMC4336329 (PLoS ONE, 2015).
The campaign covered roughly 310,000 compounds. About 14,000 (4.5%) showed an effect of 50% or more. Effects have a minus sign here. This is one part of the list.

Target: human ether-à-go-go-related gene (hERG) potassium channel (human, UniProt Q12809)
Experiment: primary screen, population patch clamp on CHO cells stably expressing hERG
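Note: peak tail current of the secondary pulse compared with the same well before compound.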

Chain of human ether-à-go-go-related gene (hERG) potassium channel (Q12809 whole entry, looked up): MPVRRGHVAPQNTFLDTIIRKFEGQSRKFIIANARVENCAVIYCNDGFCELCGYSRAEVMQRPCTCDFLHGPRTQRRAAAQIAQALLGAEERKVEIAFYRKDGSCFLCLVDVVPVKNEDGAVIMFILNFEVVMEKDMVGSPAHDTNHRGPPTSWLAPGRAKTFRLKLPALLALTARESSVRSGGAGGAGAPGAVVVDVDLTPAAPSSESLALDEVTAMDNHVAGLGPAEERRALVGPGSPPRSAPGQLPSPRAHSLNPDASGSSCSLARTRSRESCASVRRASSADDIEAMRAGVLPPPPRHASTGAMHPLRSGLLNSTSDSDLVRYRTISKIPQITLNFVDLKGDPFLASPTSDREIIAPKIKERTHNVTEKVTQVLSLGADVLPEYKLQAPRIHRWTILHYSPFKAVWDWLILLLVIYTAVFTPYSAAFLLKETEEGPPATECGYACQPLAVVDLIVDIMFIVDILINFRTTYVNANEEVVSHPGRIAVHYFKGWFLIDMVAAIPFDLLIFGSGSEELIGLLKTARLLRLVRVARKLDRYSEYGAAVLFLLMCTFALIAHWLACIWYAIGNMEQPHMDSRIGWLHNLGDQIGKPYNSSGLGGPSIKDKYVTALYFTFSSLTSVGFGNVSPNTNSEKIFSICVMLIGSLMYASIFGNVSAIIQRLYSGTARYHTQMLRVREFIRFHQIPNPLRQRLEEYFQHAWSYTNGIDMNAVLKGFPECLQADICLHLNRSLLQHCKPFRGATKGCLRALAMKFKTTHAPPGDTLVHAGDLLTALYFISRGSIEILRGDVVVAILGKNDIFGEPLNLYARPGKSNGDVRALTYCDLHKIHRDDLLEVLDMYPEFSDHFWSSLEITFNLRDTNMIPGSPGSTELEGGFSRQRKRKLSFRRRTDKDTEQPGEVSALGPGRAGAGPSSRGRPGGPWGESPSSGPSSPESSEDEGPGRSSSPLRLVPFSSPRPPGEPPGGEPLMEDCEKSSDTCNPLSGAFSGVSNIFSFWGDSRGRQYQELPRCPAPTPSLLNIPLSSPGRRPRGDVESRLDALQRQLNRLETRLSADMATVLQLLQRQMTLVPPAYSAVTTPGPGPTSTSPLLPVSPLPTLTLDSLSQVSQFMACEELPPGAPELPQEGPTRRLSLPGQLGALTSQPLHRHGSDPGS

Row | SMILES | hERG current change (%, negative = inhibition) at 10uM
1 | CCN(CC)CCn1c2c(c(SCC(=O)Nc3ccc(C)c(F)c3)nc1=O)CCCC2 | -70.1%
2 | COc1ccc(-c2cc(NCCc3ccncc3)n3ncnc3n2)cc1 | -55.8%
3 | Cc1ccc(CC(CC(=O)O)C(=O)NCc2ccccc2)cc1 (stereo not shown) | 23.3%
4 | Cc1ccc(S(=O)(=O)N2CCOCC2)cc1NC(=O)CN1CCC(Cc2ccccc2)CC1.O=C(O)C(=O)O | -12.8%
5 | CC(C)NC(=O)C1CCN(C2CCN(C(=O)Cc3ccc4c(c3)OCO4)CC2)CC1 | -3.18%
6 | CCOC(=O)Cc1csc(NC(=O)c2ccc(Br)o2)n1 | 0.115%
7 | CCOC(=O)c1cc(CN2CCOCC2)oc1-c1ccccc1 | -20.3%
8 | O=C(NCc1ccco1)C1CC(O)CN1C(=O)Nc1ccccc1 (stereo not shown) | 29.8%
9 | COc1ccc(NC(=O)Cn2nnc(C(=O)NCc3ccc(C)cc3)c2N)cc1OC | 17.3%
10 | Cc1ccc(OCCC(=O)OCC(=O)NCCc2ccccc2)cc1 | 51.4%
11 | Cc1ccc(OCc2nnc(SC(C)C(=O)O)n2-c2ccccc2)cc1 (stereo not shown) | 24.7%
12 | Cc1cc(Oc2ccc(Cl)cc2)nc(-c2ccccc2O)n1 | 8.28%
13 | O=C(O)C1Nc2ccc(OC(F)(F)F)cc2C2C=CCC12 (stereo not shown) | 13.5%
14 | COc1ccc(C(=O)NCC(C)(C)CNC(=O)c2ccc(OC)c(OC)c2)cc1OC | -9.01%
15 | COc1ccc(S(=O)(=O)N(C)CC(=O)NC2CCCCC2)cc1Cl | -8.01%
16 | COc1cccc2c1OCC(C(=O)NCc1ccc(Cl)cc1Cl)=C2 | 7.52%
17 | NNc1nc2c(Cl)c(Cl)ccc2s1 | 19.6%
18 | Cc1nc2ccc(NC(=O)c3ccc(S(=O)(=O)N(C)c4ccccc4)cc3)cc2s1 | -3.21%
19 | COc1ccccc1CNC(=O)C1CCCN(S(=O)(=O)c2ccc3c(c2)CC(C)N3C(C)=O)C1 (stereo not shown) | -24.5%
20 | N#Cc1c(N)n(-c2ccc(N)cc2)c2nc3ccccc3nc12 | 12.1%
21 | Cc1ccc(C(=O)NCCc2ccccc2)cc1 | -1.2%
22 | COc1ccc(C)cc1NC(=O)C1CCN(C(=O)C2CC(=O)N(c3ccc(C)cc3)C2)CC1 (stereo not shown) | -23.1%

Row | SMILES | hERG current change (%, negative = inhibition) at 10uM
23 | O=C1NN(c2ccc(F)cc2)C(=O)/C1=C\C=C\c1ccco1 | 11%
24 | COc1ccc(C2=CC(=O)C[C@H](c3ccc(OC)c(OC)c3)C2)cn1 | -7.46%
25 | CCn1c(SCC(=O)c2ccc(Br)cc2)nnc1C(C)NC(=O)Cc1ccc(OC)cc1 (stereo not shown) | -15.6%
26 | O=C(NCc1cccs1)N[C@@H](Cc1ccccc1)C(=O)O | -1.53%
27 | NC(=O)c1oc2ccccc2c1NC(=O)c1ccc(F)cc1 | 10.9%
28 | O=C(O)c1ccccc1S(=O)CCO (stereo not shown) | 7.26%
29 | Cc1nc(-c2cccc(N)c2)cs1 | 5.26%
30 | O=C(Nc1ccccn1)c1cccc(S(=O)(=O)N2CCCCC2)c1 | -26.9%
31 | CCCN(CC(=O)Nc1ccccc1C)C(=O)c1ccc(-c2ccc([N+](=O)[O-])cc2)o1 | -35.7%
32 | CCc1ccnc(NC(=O)NS(=O)(=O)c2ccc(C)cc2)c1 | 15.9%
33 | O=C(COC(=O)CCC(NC(=O)OCc1ccccc1)C(=O)OCC(=O)Nc1ccccc1)Nc1ccccc1 (stereo not shown) | -17.4%
34 | O=C(Cc1ccc(F)cc1)NCCS(=O)(=O)N1CCN(c2ccccc2)CC1 | 5.42%
35 | CCC(C)CCN1CCN=C1N(C)C (stereo not shown) | 15.8%
36 | CC(=O)Nc1ccc(-c2cn3c(n2)SCC3)cc1 | 25.8%
37 | COc1cc(/C=N/NC(=O)c2cccnc2)cc(Br)c1O | 3.44%
38 | BrC(=C\c1ccccc1)/C=N/Nc1nc2ccccc2[nH]1 | 8.75%
39 | CCCCCC(=O)NNC1=NCC(Cc2cccc(Cl)c2)S1 (stereo not shown) | -1.5%
40 | O=C(CN1CCN(Cc2ccc3c(c2)OCO3)CC1)Nc1ccc(N2CCOCC2)cc1 | -6.54%
41 | CC(=O)C1=C(C)NC(=S)NC1c1cccc([N+](=O)[O-])c1 (stereo not shown) | -1.53%
42 | CCN(CC(=O)Nc1c(F)cccc1F)C(=O)CSc1nc(C)cc(C)n1 | 17.2%
43 | COc1ccc(NC2c3ccccc3C(=O)N2Cc2ccc3c(c2)OCO3)cc1 (stereo not shown) | -17.7%
44 | O=c1c2c(nc3nc(NCc4cccc5ccccc45)[nH]n13)CCC2 | 46.7%

Row | SMILES | hERG current change (%, negative = inhibition) at 10uM
45 | CC(=O)N1CCOc2cc(S(=O)(=O)NCc3ccc(F)cc3)c(C)cc21 | -16.6%
46 | COC(=O)c1c(NC(=O)/C=C/C(=O)O)sc(C)c1-c1ccc(C)c(C)c1 | -16.4%
47 | O=S(=O)(c1cc(Cl)cc(Cl)c1)N1CCCC1c1nc2ccccc2s1 (stereo not shown) | 8.03%
48 | O=C(Cn1ncc2ccccc21)N1CCN(c2cccc(C(F)(F)F)c2)CC1 | -6.25%
49 | CN(C)CCNC(=O)c1cccc(S(=O)(=O)Nc2ccc(F)cc2)c1.Cl | 15%
50 | Cc1ccc2occ(CN3CCN(Cc4ccccc4)CC3)c(=O)c2c1 | -45.9%
51 | O=C(O)c1ccc(CSc2nnnn2C2CCCCC2)cc1 | -10.1%
52 | CC(NC(=O)c1ccc(NC2=NC3CS(=O)(=O)CC3S2)cc1)c1ccccc1 (stereo not shown) | 12.9%
53 | O=C(O)c1nn(CCOc2ccc(Br)cc2)c(=O)c2ccccc12 | -5.9%
54 | CN1C(=O)[C@H]2[C@@H](/C=C/c3ccccc3)N3C(=O)CN(Cc4ccc(-c5ccccc5)cc4)C(=O)[C@@]3(Cc3ccccc3)[C@H]2C1=O | -19.6%
55 | O=C(Nc1ccc(Cl)cc1)N1CCN(c2ncccn2)CC1 | -13.2%
56 | COc1cc(/C=N/NC(=O)c2cnccn2)cc(OC)c1OC | 0.907%
57 | Cc1ccc(NC(=O)C2=CC(c3cccs3)=NS(=O)(=O)N2C)cc1 | 3.24%
58 | O=C1C2C3C=CC(C3)C2C(=O)N1c1nccs1 (stereo not shown) | 39.3%
59 | COc1ccc(C(=O)N2CCCCCC2)cc1S(=O)(=O)N1CCOCC1 | 12.7%
60 | CN(C)c1cccc(C(=O)N/N=C/c2ccccc2F)c1 | 19.2%
61 | CCc1cc(-c2[nH]ncc2-c2ccc3c(c2)OCO3)c(O)cc1O | -9.25%
62 | CS(=O)(=O)c1nc(S(=O)(=O)c2ccc(Cl)cc2)c(N2CCC(C(N)=O)CC2)s1 | -61.8%
63 | COc1ccc(Nc2nc(C)cc(C)c2C(N)=O)c(OC)c1 | -1.14%
64 | O=c1c2[nH]c3ccccc3c2ncn1CCCn1ccnc1 | -41.8%
65 | Cc1c(NC(=O)c2ccc(CN3CCc4ccccc4C3)cc2)c(=O)n(-c2ccccc2)n1C | 0.767%
66 | O=Cc1c(C(=O)O)n(CC(=O)O)c2ccccc12 | 7.72%

Row | SMILES | hERG current change (%, negative = inhibition) at 10uM
67 | CC(C)=CCC(C)(C)CNC(=O)NC1CCCCC1 | -7.09%
68 | Cc1cc(C)c2c(CC(=O)NCc3ccco3)coc2c1 | -13.5%
69 | O=C(O)c1cc([N+](=O)[O-])ccc1N1CCC(Cc2ccccc2)CC1 | -4.42%
70 | CC(=O)c1ccc(OCCOc2ccc([N+](=O)[O-])cc2)cc1 | -57.6%
71 | O=C(Nc1ccc2c(c1)CCC2)Nc1ccccc1F | -61.6%
72 | O=C(NCCO)Nc1ccc2nsnc2c1 | -5.93%
73 | COc1ccc(C2=NOC(COc3ccc([N+](=O)[O-])cc3)C2)cc1 (stereo not shown) | -12.9%
74 | O=[N+]([O-])c1cc(S(=O)(=O)c2ccc(N3CCCCC3)c([N+](=O)[O-])c2)ccc1N1CCCCC1 | 1.26%
75 | CCCC(=O)NC(c1ccccc1Cl)c1ccc2cccnc2c1O (stereo not shown) | 10.1%
76 | Nc1nc(SCC(=O)NCCO)nc2sc3c(c12)CCCC3 | -21.7%
77 | CCN(CC)S(=O)(=O)c1ccc2c(c1)nc(SCC(N)=O)n2-c1ccc(OC)cc1 | -77.7%
78 | O=C(Nc1ccc(NC(=O)c2ccc(S(=O)(=O)c3ccccc3)cc2)cc1)c1ccccc1 | 12.7%
79 | CCNC(=S)NNC(=O)c1cccn(Cc2ccc(Cl)cc2Cl)c1=O | -25.1%
80 | CCC(=O)NC(Nc1nc(C)cs1)(C(=O)OC)C(F)(F)F (stereo not shown) | 6.69%
81 | Cc1ccc(Cn2c(=N)c(C(=O)NC3CCCCC3)cc3c(=O)n4ccccc4nc32)cc1 | -65.7%
82 | CC(=O)N1CCN(C2=NC(=O)/C(=C\c3cccs3)S2)CC1 | -37.1%
83 | Cc1nnc2ccc(-c3ccc(NS(=O)(=O)c4ccc(F)cc4F)cc3)nn12 | -25.2%
84 | O=C(O)CCC(NC(=O)c1ccc(Cl)cc1)C(=O)O (stereo not shown) | 15.3%
85 | O=C(NCC1CCCO1)c1cc(S(=O)(=O)N2CCOCC2)ccc1Cl (stereo not shown) | 16.5%
86 | O=C(c1ccco1)n1nc(-c2ccccc2)nc1NCc1ccco1 | 1.93%
87 | COCc1cc(=O)n2[nH]c(-c3ccccc3)cc2n1 | -4.85%
88 | Cc1nn(-c2ccccc2)c2sc(C(=O)OCc3nnc(-c4ccccc4)o3)cc12 | -0.735%
